These results are taken from article PMC12136788.

The other results are listed elsewhere or left out.

The labels stand for the following.
B1: ENSG00000008256:stop:overlap|stop_codon|ENSG00000008256|stop_codon|NA|stop_codon (ssRNA)
RNA: GGGAGUUCUACAGUCCGACGAUCGCAGAGAUCCCUUCUAUGACAUGUUGGCAACGAGGAAACGAAGGAUUGCCAAUAAAAAAUAGCUUUCCUGGCUAAAAGACCCAGGUAAAAGACCCAACCCCAGCAGAAAGACACCGCGGGCAACAGAGGAUUGAGCAUCA
B2: chr1:23854467:23854568:-|CDS|ENSG00000179163|unk|FALSE|unique (ssRNA)
RNA: GGGAGUUCUACAGUCCGACGAUCAAGUCAAGUGGUUUUACUCCUCAUGACCAAAUAUUCUUUCCCUCCUUAGGAUGAGGUGGUAGUAAAUGACCGAUGGGGUCAGAACUGUUCCUGUCACCAUGGAGGAUACUAUAACUGUGACAACAGAGGAUUGAGCAUCA
B3: ENSG00000198589:be:win_3301|CDS|ENSG00000198589|bound_else_gene|NA|bound_elsewhere_windowed (ssRNA)
RNA: GGGAGUUCUACAGUCCGACGAUCAUAGUAGAGGAAGAGGAAGAUGAUGAUUAUGUGGAACUGAAAGUAGAAGGCAGUCCUACUGAGGAAGCUAAUCUACCCACAGAGCUCCAAGAUAACAGUUUGUCUCCAGCUGCAUCUGAACAACAGAGGAUUGAGCAUCA
B4: chr6:132588675:132589686:-|CDS|ENSG00000135569|control|control|control (ssRNA)
RNA: GGGAGUUCUACAGUCCGACGAUCUGCCAAGACCCUGGGCAUUGCUGUGGGCAUAUACCUCUUGUGCUGGCUGCCCUUCACCAUAGACACGAUGGUCGACAGCCUCCUUCACUUUAUCACACCCCCACUGGUCUUUGACAUCUUCAACAGAGGAUUGAGCAUCA
B5: chr6:136278143:136278257:-|CDS|ENSG00000029363|unk|total|mutant (ssRNA)
RNA: GGGAGUUCUACAGUCCGACGAUCACAUCCGGUGAUAUUUGGCCUGGCCUUUCAGCUUAUGAUAACCGUCCCCGAUCACCCCACCGUCCUUCACCUAUUGCUACACCACCCCGUCAGAGUUCAUCUUGCUCUGAUGCUCCCAUGCAACAGAGGAUUGAGCAUCA
B6: chr5:38481646:38481747:-|CDS|ENSG00000113594|unk|FALSE|unique (ssRNA)
RNA: GGGAGUUCUACAGUCCGACGAUCCAGACCUCAGGCCAAUGUAAAUACAUGGAAUUUAGUGUCUCCAGACUCUCCUAGAUCCAUAGACAGCAACAGUGAGAUUGUCUCAUUUGGAAGUCCAUGCUCCAUUAAUUCCCGACAAUUCAACAGAGGAUUGAGCAUCA
B7: ENSG00000009954:stop:overlap|stop_codon|ENSG00000009954|stop_codon|NA|stop_codon (ssRNA)
RNA: GGGAGUUCUACAGUCCGACGAUCAUGAAGGGGACAGUGAGCCAGAGGCCGUUGGACAGUCCAGGGGACGAAGACAGAAGAAGUAGAGAGGCAGGGCCGUGGUGACAGUAUCAGUGAGUGCCAUACAGAAUUGUGUAUUCACCACAACAGAGGAUUGAGCAUCA
B8: chr17:18931026:18931127:+|3pUTR|ENSG00000141127|msi1|FALSE|unique (ssRNA)
RNA: GGGAGUUCUACAGUCCGACGAUCGAUACCUGCAAUUGAAAAGCCGAAAAGAUUAUACUGUCAAGUCCAGUAAAUGACAUUUUUAGAGAUGCUUUUGUAGACAAGCAUAUGGAAUAUGUGAUUGUAUUUAUUUUCUGCAACUAACAACAGAGGAUUGAGCAUCA
B9: chr1:108700024:108700125:+|3pUTR|ENSG00000134186|msi1|total|mutant (ssRNA)
RNA: GGGAGUUCUACAGUCCGACGAUCCACAUUGAAUCCUAUAAAUGAUUAAAUCUGCUUUUUUCCCCCACGUUGAGAUUGUGCAGCCGUUCGCACUCCUCAAGCUCUCCCUGCCGGCUGCAUUUUCAUUUCCUCUUUCGUGCCGGGCAACAGAGGAUUGAGCAUCA
B10: ENSG00000198589:be:win_7301|CDS|ENSG00000198589|bound_else_gene|NA|bound_elsewhere_windowed (ssRNA)
RNA: GGGAGUUCUACAGUCCGACGAUCAUUACUUGACCUAUGAAGGAGCUGUCAAUCUGAAUUCAAUAACUGAUCCUGUGUUGAGAGAGGCUGUUGAAGCUCAAAUCCGAAGUUUUGGACAGACUCCUUCUCAACUACUCAUAGAGCCAACAGAGGAUUGAGCAUCA
B11: chr10:88913158:88913259:+|CDS|ENSG00000138134|unk|FALSE|unique (ssRNA)
RNA: GGGAGUUCUACAGUCCGACGAUCGCAUCAGAGAUUGAUAGAGGCAGAAAGGAAGCGGAUUGCUCAGAUGCGCCAGCAGCAGCUAGAAUCGGAGCAGUUUCUGUUUUUCGAAGAUCAACUCAAGAAGCAAGAGUUAGCCCGAGGCAACAGAGGAUUGAGCAUCA
B12: ENSG00000184117:stop:overlap|stop_codon|ENSG00000184117|stop_codon|NA|stop_codon (ssRNA)
RNA: GGGAGUUCUACAGUCCGACGAUCUGGGCAACUGGAACACGUGGUAUGGGGAGCAGGACCAGGCAGGUCAUUCCUGGUUUUGGUAGAUUUCUAUCCAUACAGUACUUUUGCCAUUUCCUUUGGGAAAAAGACCUUUAAACCAUACAACAGAGGAUUGAGCAUCA
B13: chr2:112781603:112781826:-|CDS|ENSG00000115008|control|control|control (ssRNA)
RNA: GGGAGUUCUACAGUCCGACGAUCGAGUAUCUCUGAAACCUCUAAAACAUCCAAGCUUACCUUCAAGGAGAGCAUGGUGGUAGUAGCAACCAACGGGAAGGUUCUGAAGAAGAGACGGUUGAGUUUAAGCCAAUCCAUCACUGACAACAGAGGAUUGAGCAUCA
B14: chr1:153933785:153933886:-|CDS|ENSG00000198837|msi1|FALSE|unique (ssRNA)
RNA: GGGAGUUCUACAGUCCGACGAUCGGGAAGUUGGUGCAGAGGCUGGGGUCCAUCUUCCCUCAUUCUUUUCUGUGCUGCAGUGAUAGAGGCCUUGGGGGUCCUGGAACCCCGGGGAUCACCUGUGCCCUGGCACGAUGGAAGUCUCAACAGAGGAUUGAGCAUCA
B15: chr17:4948375:4948459:-|5pUTR_CDS|ENSG00000108518|msi1_unk|FALSE|overlapping (ssRNA)
RNA: GGGAGUUCUACAGUCCGACGAUCAGCCGAGGCAGCUCGAGCCCAGUCCGCGGCCCCAGCAGCAGCGCCGAGAGCAGCCCCAGUAGCAGCGCCAUGGCCGGGUGGAACGCCUACAUCGACAACCUCAUGGCGGACGGGACCUGUCAACAGAGGAUUGAGCAUCA
B16: ENSG00000177108:stop:overlap|stop_codon|ENSG00000177108|stop_codon|NA|stop_codon (ssRNA)
RNA: GGGAGUUCUACAGUCCGACGAUCUGGGCCUGCUGGUCCCCAUGUUCAAUGUCGGAAGUGAGAGCUCCAAGCAGCAGGAUAAGUAGUAGACACUCCCGUCAUUUAUCUCUCUGUCUCUGUCUUGACUCCUCCUGAGCAUAAAACCAACAGAGGAUUGAGCAUCA
B17: chr6:89794666:89794767:-|CDS|ENSG00000112159|unk|FALSE|unique (ssRNA)
RNA: GGGAGUUCUACAGUCCGACGAUCCCAGUCUUUCAAAGACUUUUCCUAGAGAGUUCAGAUGCUAAUCCAGUACGCUAUGGACGUAGGAGGAUGAAGCUCCGGGACCUAAUGGAAGCAGCCUUCAAGUUUCUGCAGCAGGAGCAGCAACAGAGGAUUGAGCAUCA
B18: chr19:6534681:6534787:+|CDS|ENSG00000125657|unk|FALSE|unique (ssRNA)
RNA: GGGAGUUCUACAGUCCGACGAUCAGAGGACACGAAGGAGCUGGUGGUGGCCAAGGCUGGAGUCUACUAUGUCUUCUUUCAACUAGAGCUGCGGCGCGUGGUGGCCGGCGAGGGCUCAGGCUCCGUUUCACUUGCGCUGCACCUCAACAGAGGAUUGAGCAUCA
B19: chr19:33301014:33301115:-|3pUTR|ENSG00000245848|unk|total|mutant (ssRNA)
RNA: GGGAGUUCUACAGUCCGACGAUCUCCCUGCGAGGAGGGGAGAAUUCUUGGGGCUGAGCUGGGAGCCCGGCAACUCCCGUAUUCCGGAUAACCUUGUGCCUUGGAAAUGCAAACUCACCGCUCCAAUGCCUACUGAGCCGGGGGCAACAGAGGAUUGAGCAUCA
B20: ENSG00000171649:stop:overlap|stop_codon|ENSG00000171649|stop_codon|NA|stop_codon (ssRNA)
RNA: GGGAGUUCUACAGUCCGACGAUCCUCAGGUUGUGGCCAUGGAACAGAGGAUGAAGAGACACCUUCUGACCAGAAUGUUUCUGUAGGAGUGUCACAGUCAAAGGCAGGUUCAUCCACACAGAAGACUCAAUCCUGUGAGAUGUGCAACAGAGGAUUGAGCAUCA
B21: chr15:32969305:32969406:-|CDS|ENSG00000248905|unk|FALSE|unique (ssRNA)
RNA: GGGAGUUCUACAGUCCGACGAUCCGAGCAUGCAAUGAUAACAGCGAGACUAGAAGAAACCAUUGAAAAUCUGAAACACGAGCUAGAACACAGAUGGCGAGGGGGUUGUGAAGAGAGGAAAGAUGUGUGCAUUUCCACCGAUGACAACAGAGGAUUGAGCAUCA
B22: chrX:120258281:120258382:+|3pUTR|ENSG00000177485|msi1|FALSE|bound_elsewhere (ssRNA)
RNA: GGGAGUUCUACAGUCCGACGAUCUGUACAAUCUUCCCUGUCAUGACUUUAAGUUCUACUUUUCAUUAACCAUGGCCUGAUAUUAGUUCUUAGAGCUUCUUGUGGCAAAAAUAAAAUGAUUUAAUUCUGAUGUUUGAGUGCGUGCAACAGAGGAUUGAGCAUCA

For this experiment, the target named is T1, UNK ZnF1-6 (called full-length) (human, UniProt Q9C0B0 30-357).
T1 sequence: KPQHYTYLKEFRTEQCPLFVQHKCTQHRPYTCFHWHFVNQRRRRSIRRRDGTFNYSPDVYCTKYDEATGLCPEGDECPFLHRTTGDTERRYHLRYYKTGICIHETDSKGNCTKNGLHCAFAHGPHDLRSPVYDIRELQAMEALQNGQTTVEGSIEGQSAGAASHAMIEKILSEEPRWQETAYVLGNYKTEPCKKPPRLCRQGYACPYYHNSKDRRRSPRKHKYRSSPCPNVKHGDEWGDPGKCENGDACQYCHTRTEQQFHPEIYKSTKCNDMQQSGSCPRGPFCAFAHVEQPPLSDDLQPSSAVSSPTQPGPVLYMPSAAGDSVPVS
Nature of the experiment: nsRBNS (natural sequence RNA bind-n-seq); RBNS binding buffer (assumed for nsRBNS): 25 mM Tris pH 7.5, 150 mM KCl, 3 mM MgCl2, 0.01% Triton X-100, 500 ug/ml BSA, 20 U/ml SUPERase-In, 4 C; UNK is unkempt and MSI1 is Musashi-1; names of the RNAs are library labels; protein concentration not given here; high values mean tight binding.
The molecule B1 came in with a binding signal of 0.599 enrichment R. Consider B2, for which the binding signal came to 0.502 enrichment R. B3 yielded a binding signal of 0.786 enrichment R. B4 had a binding signal of 0.967 enrichment R.

Turning to B5, the binding signal was 0.726 enrichment R. In turn, B6 displayed a binding signal of 0.536 enrichment R. B7 yielded a binding signal of 0.396 enrichment R. Regarding B8, the binding signal turned out to be 0.544 enrichment R. Then B9, with 0.792 enrichment R. B10 displayed a binding signal of 0.397 enrichment R.

On to B11, for which the binding signal worked out at 0.534 enrichment R.

B12 came in with a binding signal of 0.898 enrichment R.

Consider B13, for which the binding signal was determined as 0.516 enrichment R.

As to B14, the binding signal is 1.28 enrichment R. B15 yielded a binding signal of 1.01 enrichment R. B16 yielded a binding signal of 0.671 enrichment R. With B17, the binding signal worked out at 0.568 enrichment R. As to B18, the binding signal was 0.94 enrichment R. In the case of B19, the binding signal is 0.729 enrichment R. Then B20, with 0.535 enrichment R; and B21, with 0.957 enrichment R; and B22, with 0.569 enrichment R.
